In article PMC10726135:
The other results are listed elsewhere or left out. At the low end of the ranking, values are background and their order means little. Measured with an extract: partners may take part in the binding.

target: T1, HNF4alpha8 (COS-7 nuclear extract) (UniProt P41235-5); assay: protein-binding microarray; conditions: COS-7 nuclear extract on double-stranded Agilent 4x180k PBM; binding buffer, salt, pH and temperature not given; high values mean tight binding; double strand, one strand shown; sequences stand for … in …GCCTAGGGAGATTAGAGTATCGGTCGA
T1 sequence: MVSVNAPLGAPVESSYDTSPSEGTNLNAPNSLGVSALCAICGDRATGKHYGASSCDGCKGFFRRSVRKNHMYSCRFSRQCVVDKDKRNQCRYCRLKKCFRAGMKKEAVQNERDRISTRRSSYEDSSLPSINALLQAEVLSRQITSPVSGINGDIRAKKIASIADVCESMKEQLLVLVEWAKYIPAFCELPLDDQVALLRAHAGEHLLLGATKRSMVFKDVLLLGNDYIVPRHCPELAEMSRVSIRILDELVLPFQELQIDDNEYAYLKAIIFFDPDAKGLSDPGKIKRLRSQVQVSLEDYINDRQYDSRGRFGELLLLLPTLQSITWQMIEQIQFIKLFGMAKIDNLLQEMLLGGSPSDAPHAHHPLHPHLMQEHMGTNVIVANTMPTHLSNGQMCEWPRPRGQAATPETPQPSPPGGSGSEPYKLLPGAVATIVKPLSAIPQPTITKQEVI

Row | Sequence | binding signal (log2 normalized intensity)
1 | AGTTTTATGGCAGGGTCGGAATGTCTGGGC | 1.19
2 | TACGGACCATGGATCGCCAACCTTGGGTCT | -1.26
3 | AGATGATAGTGATAAGGATCTAAGAACTAA | -1.35
4 | TTATCTTACATGCCTTATCTGGTTCAAAGG | 3.33
5 | TGCCTTTGATCAGGGACCTTTGTTCCTTTA | 5
6 | TGGTTTTCCAATCTGGTGAAAGATGATGAG | 0.365
7 | ACCTAGGTAGTGGACTCTAAGGCAAAACAC | 1.85
8 | ACCCCACGGACTTAAATTGTGCTGTGTCAG | 0.967
9 | GCATTCCTGAAGCCTTCCTTAATCCTTCAG | -1.29
10 | TGACAGCAAGATAATGTCAAAAATCTTAAG | -1.06
11 | GGTGGTGGGGGGTAGCCACTGACAGGAGGT | -1.34
12 | TCCAAAGGCCATCCACATTCTTTGGCTCAG | -1.3
13 | GGTGGCCATCCATCCTGGCGACAGCAACTA | -1.25
14 | TTTGTCACCCAGGCTGAAGTCCAGTAGCTC | 1.71
15 | AGAGGCTTTAGCAATAAATTCTGTTTTTTC | -1.24
16 | CCACAGAGTGACCTGGTATTGCAAGTATTT | 1.28
17 | CAAGTTGAAGCCATCCTCCCACCTCAGCCT | 1.99
18 | AGCCGCAGAGCTAATGTTCAAATCCAGACA | -1.29
19 | TATTCAAACAGAGGACAGTTGTGTTTGTTG | 1.43
20 | AGTGCTTGTCAGTTTTGTTTTTGATCCCAA | 2.57
21 | CTATCAGTCTGGGTCCAGTCAGGGAAATGG | 1.03
22 | GCAGAGTGGGAGGCCAAGAGATAAAAGAGA | -1.1
23 | TGGTAGCGTGTAGTAAAGCTCATGAAGCTT | 0.734
24 | CCACAAGCCAAGGAGAGAGGCCTCTAGATA | -1.26
25 | GGTGGAGATGCCGTCGGCACACACGCATGG | -1.23

Row | Sequence | binding signal (log2 normalized intensity)
26 | GGGCTGTGAGAAACATCCTGCCTAACCACC | -1.39
27 | TATCTTTCCCTCCACTTCCTTTCTTTCCCT | -0.624
28 | GGGCATGGACTTTGGAATTAAGGAGATTTG | 5.76
29 | AGCATTAATCCCTGAGCCTGGACCTTGGAA | 4.7
30 | ATGGCTACCAAGGAGTGGACTGTTCAAGAC | 1.07
31 | ACCTGGCCAAGTACAGCCTGTGCTAAGTTT | -0.0755
32 | TAAGTGCACAGCCAGAACTGAGCCCTGGTT | -1.27
33 | CTCTGGGAGATAAAGCAGAGGGCTGCTTGC | -1.34
34 | CTTGGTGAGAGATTAAACATGCTCTGCATA | -1.08
35 | AGAGCACTAAATCTCTCCTAGAGAAAGGGG | -1.38
36 | GTAGAAATTGTGGCTTGTGTAGTTATCCAG | 1.4
37 | CTGAGGATCTAATGCACCCAGAACCCCCAG | 4.47
38 | CATTGCAAGTCGTATACTATCTCAGGGCCT | -1.16
39 | CGAGAGCCGCCGCCGTGGGAGAGGCCGCCC | -1.18
40 | TTGCCTTCCTGTTAGATAGAGGAGTCAAGC | -0.622
41 | CAAAGGACATTTCTAAAAATAGCCTTACTT | -1.37
42 | CTACATAACAAACATTACTAACTGGACTTT | 7.01
43 | TGACCTCTTGGAAACATTTTACTCACCCCT | 2.77
44 | TATGGGAAGTGGGGTAAGCAAGGCTCTTAG | -1.34
45 | GGCTAAACCTAGCCCCCTTTCCCTTATCTT | 2.81
46 | AAATTTGTTTACTTCTGTCTCCAGAAATCA | 0.99
47 | CCAGGTTCCAAAGGTCACCCGTATTCCTTA | 7.23
48 | AAGGTTCAGAGCCTGGCTGGCCTGGCAAAT | -1.03
49 | ACATTCTTAGACAACACACCACCTGCTACT | -1.24
50 | TTGTCAAGTTTGGTAAGCAGACCCCTACTG | 2.36

Row | Sequence | binding signal (log2 normalized intensity)
51 | GGATTCTGGGACCCACCCACCTATGTCCTT | 2.75
52 | GTGGGGGTCGGGGCACTGGTCCCCTGCACA | -0.202
53 | TTCTTTGGGGCTTAGATAGCAGTGTGAGTG | 1.06
54 | GTCTAGGTGCCAGAATTGCTGCTCCCCCTC | 3.94
55 | GAAAGGAGGTCATGTACATGAAAGCAAGTT | 1.24
56 | TAAGCAGATCTTTAGAGACAGAAAATGCTT | -1.18
57 | TAAAGTTTATAGGCTAGAATGGAAACCAAT | -1.17
58 | GTTTCTGTTTTGATCTTAAGATGATATAGC | 1.74
59 | TTCCAGCTCAATCAAGGACTGGGCTGGAAC | -1.19
60 | TAGGTAAGAGACAAAGGTTGCATTCTTTTG | 2.02
61 | CACTGTTTGCCATAGATCCCACCATTCCCA | 1.63
62 | TTCAGCTTCTCTTGTTTGTGTAACTGTGGG | 1.62
63 | TGGTGTTTGATCTGATGTACCCAGCACTGT | 1.59
64 | TTGATATGTTAGTCTTGAGTCCCAAAGTCC | 4.55
65 | TGTTTGAGTTCCAAAGTCCATGTTCATAAC | 5.66
66 | GGGTGGGGTGCTGCCTTTCCTGTGACTTTT | 2.09
67 | ACCTGATGACAAAGGTGAGAGAGCATCCAG | -1.35
68 | GAAAAGAATATCTCAGCAGCCTGGCTGCTC | -1.32
69 | CCTGGCCATTTCTCAGGTTGTGTTTGCAGT | 2.02
70 | TTGCATCAGCAGAGGACAGAAGAAGGAAAA | -1.44
71 | GTTCTGTTCCAGTTATGTTCTCTGTACGGA | 2.02
72 | ATCAGAGCTGGATGTGAGTTATGACTACTT | 0.62
73 | GCCCTTTTTTTCTCTCCCCTTTTAATACAA | 1.73
74 | CCCTCTTTAGGGTAGCCTGGGTTAAAGTCC | 6.18
75 | CAGCACATGAAGGTCTCCTTGACTTCAAAG | -0.936

Row | Sequence | binding signal (log2 normalized intensity)
76 | CCTGGTGGCCATCAAGCAGATCATCCAGAG | -1.23
77 | TTGGTGGGCTTTTGTCACATTCCAGACTTT | 3.32
78 | CCCCTGCCCCCAGGTAGAGAGCAATCATGC | 2.8
79 | AGATTAGATATATCTGTACTCAAACACTGC | 0.957
80 | TTTGAAGCATGGAGAAAATTCTGGACCTTC | 2.85
81 | TTGGTATTACATTACAACCAAAGGAATTTA | -0.386
82 | TGCTCCCTCCTTCAGTGCTCTGTTGAGTCA | 0.343
83 | TCTGTCCCATGGTGTACAAGGAGTCTCCAC | 0.988
84 | GGTTCAGAGACCTGGCGGATAGATAGAATC | -0.983
85 | ACGCCGTCTCAAAAAAAAAAAAAAGGCAGT | -1.29
86 | TCAGGGTAAATCCCGTCCCTGCCAAAGGTC | 5.45
87 | GGTGATTTCAGACTATTTTATTTTCCCCCT | 4.03
88 | CTGGCTGAAGACCTGTACAGGGACTGTGTC | 0.454
89 | CGTAATGTGTCCCCACATCTGTGAAAACGA | 1.51
90 | GGGTGTCTGCTGTTCTTGCCTGATAGCATC | -0.0171
91 | TGCCAAGGAGCCTCTGCAACCTTTGCTCTC | 6.62
92 | AATAAGGATTATCACTGAATCGAGGCTATT | -1.32
93 | CACAGCACAAGATAAGATAGGAATTTGAGT | -1.33
94 | TATTCCTTGTCCTTGACCCTTCCTCCCATT | 4.01
95 | CCACAGAGTTGCTGTGACAGACAGGTGAGA | -1.28
96 | TAATTGCCCTTTGCCCTTTGCCCAACCCTC | 7.74
97 | TTCCCCTTTGACTTAGGATCAGTAGCATTA | 1.17
98 | AGAACTGGGCGAGCCCTCTGATCTGACCCC | 6.3
99 | GCTTGAAAAGAAGAAAAAACAGGTGTTCTT | -0.629
100 | TTGTCCCTTTCAAGGGCTTACAACTCTAAG | 0.699

Row | Sequence | binding signal (log2 normalized intensity)
101 | TGATAACATGAGGTAGAGGGACACTGATAA | -1.29
102 | CTCCTGACCTTTGGACTTGATAGAGTTTAA | 8.25
103 | TGCGTTTCAAAGCCAGGACTTTCAGGAATG | -1.22
104 | GTGCTTTCTGTCCTCTCAAAGTCCACCCGG | 4.43
105 | TGCTTCAGTCTCCCAAGTAGCTCATTTATT | 0.781
106 | AACACCTGGGTCTGACCTCTTTCAAGCCTG | 1.64
107 | AAAGCCATCAGCACTGGTTCAAAGTGTAGC | 1.25
108 | AAGTCCCCTTTCCTCATATTTTGCATACCA | 1.32
109 | TCCACAGAGTTCATAATTTTGGACTTTGTG | 7.1
110 | GCCTGGCTGGCCTGGCAAATCTCTAAATTC | -1.43
111 | CAAACATTTGGAAAACATCATTCCGTGACT | -1.29
112 | ACTATTTTCAAAGGTCAACATACAGAGGCT | 2.59
113 | AAGCGGACAAACCAGTCCCATCTGTGCTCA | -1.44
114 | CTCCAAACAAATTGAGAAAGATTAAGAGGC | -1.38
115 | CCGAGGCTGACAGCAGAGAGTTTTCCTTGG | -1.25
116 | AATGAATGTCACTTTCTGACTGGCCTGGGA | 1.21
117 | GGCCCCAGTGCACGTGCATGAGGCCCCTTG | 2.48
118 | GTTTCCCTCTCTCTCTCTCTCTCACACACA | 1.03
119 | TCTCTCCCACTTATCTCAATCCTGCTCAAT | -1.18
120 | GGGTAGATAAGGATGGATCAAAGGAAACTG | -1.1
121 | TCTATCAGTACAAATAAACCTTTGACCAAT | 4.88
122 | TAATGGAATTGACATTCAATTGCAAGCTTA | -1.41
123 | GGAGGGAACAGCAAGACTTTGGCCCTGCAG | 0.278
124 | TAGCTACTGCAATAAAGTGGGTTGAAGTTC | 1.71
125 | AGTCCAGAAATAGCATCACGAAAGGCAACA | -0.747

Row | Sequence | binding signal (log2 normalized intensity)
126 | TATGTTTGTGCTGGTTACTAAACACTTACA | -1.35
127 | CGGCGGCCCAGTCAAACCCCGCGCTCCAGG | -1.22
128 | ACAAATGTCAGACAAACAGACTTCACACTA | -1.24
129 | AGATGGTCTCAGGTGGAGATAAGGAATTTG | -1.15
130 | ATACTTAGGATTTTTGTGCCTCTTTGGTGA | 0.277
131 | GATGCATGCACTTCATTGTGCACCCACTTG | -0.982
132 | GAACCCAAGCAATCTGGCTGCAGAGTCCAA | 2.97
133 | CTTTTGTTTTTCTTCAAGGAGGTGAACTTT | 5.95
134 | CCCCTGCACAGTCAAAAATTTGTGTGTAAC | 1.91
135 | CTCTCCCTCCTCTCTGAGCAGTCAAACTGG | 1.89
136 | GGTCAAGCTAAGCACAACTGATTCTATTTA | -1.27
137 | ACTGCCCTCTGCCTTTCAGGCAGGAGACGA | -1.18
138 | GGGTTCTTGGATCCTCAGGGTTCATAGATG | 2.22
139 | TTCCCTCTCTCCTGGTTTGGGGCCTAAATG | 1.08
140 | AAGTTTGCAAACAGTAAAGAACAAACTTCC | -1
141 | TGAATGCCTGGGCATGGCTGTGTTCCAGTA | 0.596
142 | GGTACCCTGGATACGGAAGGTGCTCAGAAA | -1.4
143 | CAACGGAGGTGGGAAAGACTTAGGATCTAG | -1.41
144 | GTCCCGTTATGGCACCAAGAAACCTTTCCC | -1.21
145 | CTACAGCCCACAATTGCATGTTCAACAGAC | -1.21
